Results reported in patent publication US20030229082A1, “Inhibition of RNA function” (The Regents of the University of California, priority 2002, published 2003).

Test system: hybrid RevTat protein on the RRE
Assay: CAT assay in HeLa cells, heterologous tethering control
Settings: specificity control

SMILES: CN1CCN(CCCN2c3ccccc3Sc3ccc(Cl)cc32)CC1 [prochlorperazine]
- effect on the hybrid RevTat protein on the RRE: no effect
